US11365205B2 (Aurigene Discovery Technologies Limited, priority 2018, dated 2022)

These molecules were tested against PRMT5/MEP50 Complex (Homo sapiens (Human), UniProt O14744) (assay: PRMT5 inhibition based on TR-FRET assay). Conditions: 32 nM PRMT5:MEP50, 50 nM Histone-H4 peptide, 1 μM SAM.
Format: biochemical
Description: PRMT5 Inhibition Based on TR-FRET Assay:
Protein arginine methyltransferase 5 (PRMT5) is a type II arginine methyltransferase that catalyze mono- and symmetric demethylation on arginine residues of histone or non-histone proteins in presence of S-adenosylmethionine (AdoMet or SAM) a cofactor responsible for donating the methyl group. PRMT5 is reported to be overexpressed in several human cancers. To identify compounds that inhibit the PRMT5 and decrease its activity, a TR-FRET based assay has been established. Time-resolved fluorescence resonance energy transfer (TR-FRET) HTS assays are homogeneous proximity assays where the interaction of two dye-labeled binding partners is detected by the energy transfer between a donor and an acceptor dye and the subsequent light emission by the acceptor dye. PRMT5 catalyzes Histone H4 peptide which is biotin tagged to the Lysine amino acid at carboxyl end, in presence of S-adenosyl-1-methionine (SAM) to methylate the peptide. The antibody specific to mono methylated H4 peptide (H4R3) with Ig conjugate binds to the methylated peptide, indirectly binding to the Europium lanthanide. SureLight Allophycocyanin-Streptavidin binds to the biotin tag of the peptide, therefore accepting the energy transferred from the Europium lanthanide. This energy transfer between Europium to SureLight Allophycocyanin is a direct measure of the activity/inhibition of the PRMT5 enzyme.
Assay buffer: 20 mM BICINE (pH 7.6), 25 mM NaCl, 2 mM DTT, 0.01% Tween-20 and 0.01% BSA.
The compound dilutions were prepared as 7.5% DMSO stock solutions in assay buffer. To 2 μL (7.5×) of test compound, 5 μL of PRMT5 enzyme prepared in assay buffer (Final concentration of 32 nM in 15 μL reaction volume) was added and allowed for 30 minutes pre-incubation time in a white polystyrene 384-well plate at room temperature. […] The plates were then read on Victor-3 with Excitation at 340 nm and Emissions collected at 615 and 665 nm in TR-FRET protocol. […]

Chain of UniProt O14744 (O14744 whole entry): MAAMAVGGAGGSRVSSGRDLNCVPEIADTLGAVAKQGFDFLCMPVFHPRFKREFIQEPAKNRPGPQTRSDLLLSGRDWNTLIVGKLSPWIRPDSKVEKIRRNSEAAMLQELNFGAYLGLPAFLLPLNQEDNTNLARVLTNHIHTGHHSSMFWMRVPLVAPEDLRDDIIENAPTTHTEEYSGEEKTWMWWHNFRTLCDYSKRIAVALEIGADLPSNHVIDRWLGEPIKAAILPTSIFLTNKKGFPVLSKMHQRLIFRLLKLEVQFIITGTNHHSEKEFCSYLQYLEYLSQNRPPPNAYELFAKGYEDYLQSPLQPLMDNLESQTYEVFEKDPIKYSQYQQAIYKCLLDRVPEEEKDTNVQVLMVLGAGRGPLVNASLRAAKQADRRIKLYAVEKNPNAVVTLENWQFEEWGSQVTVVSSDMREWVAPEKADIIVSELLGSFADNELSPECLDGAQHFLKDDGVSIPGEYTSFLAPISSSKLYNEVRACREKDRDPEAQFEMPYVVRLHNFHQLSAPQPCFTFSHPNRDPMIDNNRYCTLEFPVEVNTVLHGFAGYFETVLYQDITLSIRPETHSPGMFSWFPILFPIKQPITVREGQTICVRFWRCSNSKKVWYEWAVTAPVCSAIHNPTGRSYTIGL
Chain of UniProt O14744 (Q9BQA1 whole entry partner): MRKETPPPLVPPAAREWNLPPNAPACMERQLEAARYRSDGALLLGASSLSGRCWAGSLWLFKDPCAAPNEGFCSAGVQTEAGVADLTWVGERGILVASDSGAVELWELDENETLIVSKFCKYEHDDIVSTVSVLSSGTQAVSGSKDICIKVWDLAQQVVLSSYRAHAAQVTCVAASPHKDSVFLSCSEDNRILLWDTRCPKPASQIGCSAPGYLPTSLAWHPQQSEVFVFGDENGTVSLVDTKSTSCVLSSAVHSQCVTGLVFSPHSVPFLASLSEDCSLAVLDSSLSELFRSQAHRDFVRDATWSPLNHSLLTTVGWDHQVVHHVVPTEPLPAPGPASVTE

Row | IC50 [nM] | Structure (SMILES)
1 | 40 | N#Cc1ccc(CN2CCN(CC(O)CN3CCc4ccccc4C3)C2=O)cc1 (single isomer, unassigned) [Example 18a, 4-((3-(3-(3,4-dihydroisoquinolin-2(1H)-yl)-2-hydroxypropyl)-2-oxoimidazolidin-1-yl)methyl)benzonitrile]
2 | 250 | Cc1ccccc1CN1CCN(CC(O)CN2CCc3ccccc3C2)C1=O (stereo not drawn) [Example 16, 1-(3-(3,4-Dihydroisoquinolin-2(1H)-yl)-2-hydroxypropyl)-3-(2-methylbenzyl)imidazolidin-2-one]
3 | 70 | N#Cc1ccc(CN2CCN(CC(O)CN3CCc4ccccc4C3)C2=O)cc1 (stereo not drawn) [Example 18, 4-((3-(3-(3,4-dihydroisoquinolin-2(1H)-yl)-2-hydroxypropyl)-2-oxoimidazolidin-1-yl)methyl)benzonitrile]
